Data reported in publication PMC10638516 (Acta Pharmaceutica Sinica. B, 2023).

Tests used:
h5-HT6 = h5-HT6 (Homo sapiens, UniProt P50406); assay: biochemical; assay type: binding
hD1 = hD1 (Homo sapiens, UniProt P21728); assay: biochemical; assay type: binding
PC12 cells = assay: CCK8 cytotoxicity test, PC12; assay type: cell-based; details: 24 h
[1] = BBB penetration study in ICR mice; assay type: in vivo, mouse; details: for concentration at 0.5 h / concentration at 2 h / Kp at 0.5 h / Kp at 2 h: ICR, mouse; for Kp at 0.5 h: Brain/plasma ratio at 0.5 h; for Kp at 2 h: Brain/plasma ratio at 2.0 h
hD2R [2] = target: T1, hD2R (Homo sapiens, UniProt P14416); assay type: cell-based
hD2R [3] = target: T1, hD2R; assay: biochemical; assay type: binding
hD5 = hD5 (Homo sapiens, UniProt P21918); assay: biochemical; assay type: binding
mice [4] = assay: Catalepsy test in mice; assay type: in vivo, mouse
hD3R [5] = target: T2, hD3R (Homo sapiens, UniProt P35462); assay: biochemical; assay type: binding
hα1 = assay type: binding, rat; details: read-out: Ki hα1; Table 6 selectivity profile
hERG channel = hERG channel (Homo sapiens, UniProt Q12809); assay: hERG channel automated patch clamp; assay type: cell-based; details: hERG inhibition IC50, patch clamp, tested three times
hSERT = hSERT (Homo sapiens, UniProt P31645); assay: biochemical; assay type: binding
h5-HT1B = h5-HT1B (Homo sapiens, UniProt P28222); assay: biochemical; assay type: binding
HEK293T cells = assay: CCK8 cytotoxicity test, HEK293T; assay type: cell-based; details: 24 h, CCK8, compared with RPD
h5-HT2A = h5-HT2A (Homo sapiens, UniProt P28223); assay: biochemical; assay type: binding
ICR mice [6] = assay: Forced swimming test; assay type: in vivo, mouse; details: 36b 3, 10, 30 mg/kg, DLX 15 mg/kg
hH1 = hH1 (Cavia porcellus, UniProt P31389); assay: biochemical; assay type: binding, guinea pig
ICR mice [7] = assay: Spontaneous locomotor test; details: compounds 30 mg/kg i.p., RPD 1 mg/kg, 15 min
[8] = Weight gain on repeated oral dosing; assay type: in vivo, mouse; details: mice, p.o. once daily 30 days; 23j, 36b 30 mg/kg; RPD 1 mg/kg
hNET = hNET (Homo sapiens, UniProt P23975); assay: biochemical; assay type: binding
ICR mice [9] = assay: Apomorphine-induced climbing; assay type: in vivo, mouse; details: i.p., apomorphine 1.0 mg/kg s.c.
mice [10] = assay: Serum prolactin after repeated oral dosing; assay type: in vivo, mouse; details: after 30 days p.o. dosing, 23j, 36b 30 mg/kg, RPD 1 mg/kg
ICR mice [11] = assay: Tail suspension test; assay type: in vivo, mouse
BV2 cells = assay: CCK8 cytotoxicity test, BV2; assay type: cell-based; details: 24 h, CCK8, compared with RPD
mice [12] = assay: Acute toxicity assay in mice; assay type: in vivo, mouse; details: i.p., up to 600 mg/kg
hD3R [13] = target: T2, hD3R; assay: ERK1/2 phosphorylation; assay type: cell-based
[14] = Pharmacokinetics study in ICR mice; assay type: in vivo; details: mouse, plasma
hD4 = target: T3, hD4 (Homo sapiens, UniProt P21917); assay: biochemical; assay type: binding
T3 sequence (P21917 1-419): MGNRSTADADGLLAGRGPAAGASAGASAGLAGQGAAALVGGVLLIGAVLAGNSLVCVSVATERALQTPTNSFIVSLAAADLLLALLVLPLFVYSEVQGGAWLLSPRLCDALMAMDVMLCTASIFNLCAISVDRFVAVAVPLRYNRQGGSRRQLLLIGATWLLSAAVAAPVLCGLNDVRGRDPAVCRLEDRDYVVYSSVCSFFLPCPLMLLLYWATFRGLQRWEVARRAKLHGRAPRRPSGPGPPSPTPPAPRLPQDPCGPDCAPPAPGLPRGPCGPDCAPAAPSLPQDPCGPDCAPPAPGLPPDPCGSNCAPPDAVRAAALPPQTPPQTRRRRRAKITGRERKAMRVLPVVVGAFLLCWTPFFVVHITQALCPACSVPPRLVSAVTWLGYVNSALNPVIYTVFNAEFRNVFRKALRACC

Catalepsy test in mice = assay type: in vivo, mouse; details: mouse, in vivo, ip, Catalepsy ED50 i.p.
[15] = brain, iv, 3 mg/kg, 3 mg/kg i.v.
[16] = brain, po, 10 mg/kg, 10 mg/kg p.o.

T1 sequence (P14416 whole entry): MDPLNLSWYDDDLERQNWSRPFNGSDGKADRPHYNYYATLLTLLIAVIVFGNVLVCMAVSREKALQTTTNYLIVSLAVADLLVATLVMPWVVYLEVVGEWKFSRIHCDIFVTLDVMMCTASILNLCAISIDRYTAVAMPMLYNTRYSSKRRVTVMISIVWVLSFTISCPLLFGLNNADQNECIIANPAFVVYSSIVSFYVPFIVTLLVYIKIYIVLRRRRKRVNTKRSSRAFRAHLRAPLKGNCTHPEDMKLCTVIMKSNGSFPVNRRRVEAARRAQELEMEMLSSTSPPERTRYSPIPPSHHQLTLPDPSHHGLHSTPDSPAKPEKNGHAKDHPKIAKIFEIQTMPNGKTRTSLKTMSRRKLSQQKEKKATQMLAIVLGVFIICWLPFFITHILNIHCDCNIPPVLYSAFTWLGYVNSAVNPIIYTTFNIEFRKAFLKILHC
T2 sequence (P35462 whole entry): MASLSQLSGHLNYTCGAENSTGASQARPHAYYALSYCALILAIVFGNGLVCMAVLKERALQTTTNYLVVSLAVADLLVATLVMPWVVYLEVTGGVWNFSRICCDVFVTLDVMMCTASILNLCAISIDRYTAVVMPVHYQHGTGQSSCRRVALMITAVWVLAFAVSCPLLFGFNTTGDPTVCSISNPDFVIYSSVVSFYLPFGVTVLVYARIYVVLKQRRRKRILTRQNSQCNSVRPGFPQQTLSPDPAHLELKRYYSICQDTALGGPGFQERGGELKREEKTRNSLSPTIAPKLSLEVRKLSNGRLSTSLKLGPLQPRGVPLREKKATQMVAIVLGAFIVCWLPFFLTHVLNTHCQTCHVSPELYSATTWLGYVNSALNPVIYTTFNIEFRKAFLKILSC
Sequence of UniProt Q12809 (Q12809 whole entry): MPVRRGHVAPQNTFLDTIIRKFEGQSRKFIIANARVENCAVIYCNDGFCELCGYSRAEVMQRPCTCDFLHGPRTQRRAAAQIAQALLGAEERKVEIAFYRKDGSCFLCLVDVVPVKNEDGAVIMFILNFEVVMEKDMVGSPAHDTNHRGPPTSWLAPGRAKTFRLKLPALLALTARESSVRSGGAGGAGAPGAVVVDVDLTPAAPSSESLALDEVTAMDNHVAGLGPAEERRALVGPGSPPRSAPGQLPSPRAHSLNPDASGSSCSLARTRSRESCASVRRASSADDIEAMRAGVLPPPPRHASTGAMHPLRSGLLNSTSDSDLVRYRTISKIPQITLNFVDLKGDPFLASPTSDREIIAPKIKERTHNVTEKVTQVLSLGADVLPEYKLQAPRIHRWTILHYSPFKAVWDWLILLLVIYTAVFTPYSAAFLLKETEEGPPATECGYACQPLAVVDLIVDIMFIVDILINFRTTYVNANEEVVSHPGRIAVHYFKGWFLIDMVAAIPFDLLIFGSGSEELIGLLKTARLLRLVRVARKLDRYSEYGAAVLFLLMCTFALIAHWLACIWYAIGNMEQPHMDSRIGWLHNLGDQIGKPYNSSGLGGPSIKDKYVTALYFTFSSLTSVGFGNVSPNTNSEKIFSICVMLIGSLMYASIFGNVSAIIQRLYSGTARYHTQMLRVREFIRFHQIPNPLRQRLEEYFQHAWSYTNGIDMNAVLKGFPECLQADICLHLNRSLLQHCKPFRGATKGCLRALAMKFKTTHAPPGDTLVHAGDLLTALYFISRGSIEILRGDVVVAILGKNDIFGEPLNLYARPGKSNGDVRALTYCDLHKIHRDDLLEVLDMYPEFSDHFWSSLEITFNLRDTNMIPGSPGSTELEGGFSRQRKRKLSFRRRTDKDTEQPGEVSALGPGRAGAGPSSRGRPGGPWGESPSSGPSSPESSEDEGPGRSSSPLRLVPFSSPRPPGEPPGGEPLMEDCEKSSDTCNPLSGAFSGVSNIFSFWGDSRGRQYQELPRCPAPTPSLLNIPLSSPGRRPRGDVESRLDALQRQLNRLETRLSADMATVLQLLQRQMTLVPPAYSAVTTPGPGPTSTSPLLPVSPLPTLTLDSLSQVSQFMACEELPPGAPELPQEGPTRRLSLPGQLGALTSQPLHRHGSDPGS
Sequence of UniProt P50406 (P50406 whole entry): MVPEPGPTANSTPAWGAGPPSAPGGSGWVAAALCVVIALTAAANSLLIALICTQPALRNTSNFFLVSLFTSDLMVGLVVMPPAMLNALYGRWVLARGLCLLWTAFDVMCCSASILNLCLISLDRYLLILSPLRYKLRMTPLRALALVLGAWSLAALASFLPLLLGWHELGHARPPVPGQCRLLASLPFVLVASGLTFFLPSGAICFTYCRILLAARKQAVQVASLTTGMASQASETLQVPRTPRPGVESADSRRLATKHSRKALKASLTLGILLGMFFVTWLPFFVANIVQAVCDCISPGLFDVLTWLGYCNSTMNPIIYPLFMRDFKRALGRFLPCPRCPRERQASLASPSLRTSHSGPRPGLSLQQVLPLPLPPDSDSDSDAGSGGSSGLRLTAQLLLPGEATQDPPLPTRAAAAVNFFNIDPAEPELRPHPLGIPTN
Sequence of UniProt P28222 (P28222 whole entry): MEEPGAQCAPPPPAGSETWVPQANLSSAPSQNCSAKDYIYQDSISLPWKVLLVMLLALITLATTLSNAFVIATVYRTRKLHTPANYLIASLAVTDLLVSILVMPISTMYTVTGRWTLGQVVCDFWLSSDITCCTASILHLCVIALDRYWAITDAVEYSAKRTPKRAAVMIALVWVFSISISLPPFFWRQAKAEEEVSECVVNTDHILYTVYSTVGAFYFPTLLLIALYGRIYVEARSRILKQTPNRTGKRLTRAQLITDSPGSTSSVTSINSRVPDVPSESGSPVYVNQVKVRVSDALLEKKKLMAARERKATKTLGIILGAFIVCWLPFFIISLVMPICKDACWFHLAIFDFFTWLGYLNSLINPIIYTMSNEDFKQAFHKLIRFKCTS
Sequence of UniProt P31389 (P31389 whole entry): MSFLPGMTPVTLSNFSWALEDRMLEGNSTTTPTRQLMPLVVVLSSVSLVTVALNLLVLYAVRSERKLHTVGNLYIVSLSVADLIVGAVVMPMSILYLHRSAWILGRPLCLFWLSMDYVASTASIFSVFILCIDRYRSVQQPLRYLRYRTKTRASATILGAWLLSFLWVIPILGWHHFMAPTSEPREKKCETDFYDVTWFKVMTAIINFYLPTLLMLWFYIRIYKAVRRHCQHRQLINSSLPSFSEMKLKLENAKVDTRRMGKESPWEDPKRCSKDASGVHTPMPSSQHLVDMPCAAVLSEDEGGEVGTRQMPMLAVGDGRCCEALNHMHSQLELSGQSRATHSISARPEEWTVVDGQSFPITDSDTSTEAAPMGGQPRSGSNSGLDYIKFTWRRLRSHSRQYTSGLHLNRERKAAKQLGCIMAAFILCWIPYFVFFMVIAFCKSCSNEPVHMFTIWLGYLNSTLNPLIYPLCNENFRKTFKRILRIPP
Sequence of UniProt P21918 (P21918 whole entry): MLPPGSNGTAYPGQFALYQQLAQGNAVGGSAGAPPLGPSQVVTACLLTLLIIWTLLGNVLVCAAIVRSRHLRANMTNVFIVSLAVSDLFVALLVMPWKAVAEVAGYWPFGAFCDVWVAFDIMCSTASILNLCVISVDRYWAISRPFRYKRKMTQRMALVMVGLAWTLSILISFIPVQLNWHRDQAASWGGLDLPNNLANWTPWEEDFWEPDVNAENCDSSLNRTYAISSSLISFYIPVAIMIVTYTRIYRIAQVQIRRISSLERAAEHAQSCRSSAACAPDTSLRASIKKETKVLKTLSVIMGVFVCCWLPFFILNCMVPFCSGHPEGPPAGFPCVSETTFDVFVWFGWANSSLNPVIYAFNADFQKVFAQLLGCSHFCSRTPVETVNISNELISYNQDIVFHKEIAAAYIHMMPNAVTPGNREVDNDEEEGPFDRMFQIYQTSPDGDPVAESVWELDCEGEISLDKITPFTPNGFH
Sequence of UniProt P21728 (P21728 whole entry): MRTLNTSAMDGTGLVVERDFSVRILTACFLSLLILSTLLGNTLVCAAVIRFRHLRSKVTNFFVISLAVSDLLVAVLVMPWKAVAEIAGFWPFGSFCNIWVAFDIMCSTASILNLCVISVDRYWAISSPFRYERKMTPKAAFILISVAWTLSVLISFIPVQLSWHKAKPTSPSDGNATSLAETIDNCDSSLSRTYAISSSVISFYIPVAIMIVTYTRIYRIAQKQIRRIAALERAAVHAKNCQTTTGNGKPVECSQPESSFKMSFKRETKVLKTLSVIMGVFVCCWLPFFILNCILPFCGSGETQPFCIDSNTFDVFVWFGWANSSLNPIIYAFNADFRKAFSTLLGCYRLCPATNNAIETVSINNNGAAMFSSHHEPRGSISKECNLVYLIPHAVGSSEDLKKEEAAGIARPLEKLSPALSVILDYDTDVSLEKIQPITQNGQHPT
Sequence of UniProt P23975 (P23975 whole entry): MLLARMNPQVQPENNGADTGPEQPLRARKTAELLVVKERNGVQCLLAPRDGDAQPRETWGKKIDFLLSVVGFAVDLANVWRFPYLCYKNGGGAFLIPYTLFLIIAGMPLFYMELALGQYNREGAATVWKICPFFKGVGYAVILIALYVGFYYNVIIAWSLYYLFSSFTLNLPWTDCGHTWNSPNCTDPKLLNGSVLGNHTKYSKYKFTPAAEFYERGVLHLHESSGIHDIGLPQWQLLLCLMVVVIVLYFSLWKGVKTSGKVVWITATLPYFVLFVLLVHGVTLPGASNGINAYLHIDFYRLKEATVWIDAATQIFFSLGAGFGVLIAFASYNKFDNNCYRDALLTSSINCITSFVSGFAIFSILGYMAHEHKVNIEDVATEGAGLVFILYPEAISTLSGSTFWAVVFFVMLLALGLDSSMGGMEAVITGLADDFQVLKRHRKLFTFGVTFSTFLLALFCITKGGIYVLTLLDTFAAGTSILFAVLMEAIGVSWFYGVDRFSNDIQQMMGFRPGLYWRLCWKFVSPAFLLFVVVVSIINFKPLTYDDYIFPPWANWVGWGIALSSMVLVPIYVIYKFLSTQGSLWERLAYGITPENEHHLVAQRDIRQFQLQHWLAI

Cn1c2c(c3ccccc31)CN(CCCCNC(=O)c1nc3ccccc3[nH]1)CC2 [36b]
Ki (h5-HT6): 10300 nM
Ki (hD1): > 10000 nM
cytotoxicity in PC12 cells (PC12 cells): best safety profiles
Brain concentration at 0.5 h ([1]; 3 mg/kg i.v., 3 mg/kg): 1552.86 ng/mL
Brain concentration at 0.5 h ([1]; 10 mg/kg p.o., 10 mg/kg): 310.17 ng/mL
Brain concentration at 2.0 h ([1]; 10 mg/kg p.o., 10 mg/kg): 181.65 ng/mL
concentration at 0.5 h ([1]; brain, iv, 3 mg/kg, Brain concentration at 0.5 h, 3 mg/kg i.v.): 1550 ng/mL
concentration at 2 h ([1]; brain, iv, 3 mg/kg, Brain concentration at 2.0 h, 3 mg/kg i.v.): 139 ng/mL
Kp at 0.5 h [1, 15]: 4.5
Kp at 2 h [1, 15]: 5.57
concentration at 0.5 h ([1]; brain, po, 10 mg/kg, Brain concentration at 0.5 h, 10 mg/kg p.o.): 310 ng/mL
concentration at 2 h ([1]; brain, po, 10 mg/kg, Brain concentration at 2.0 h, 10 mg/kg p.o.): 180 ng/mL
Kp at 0.5 h [1, 16]: 0.74
Kp at 2 h [1, 16]: 0.97
concentration at 0.5 h ([1]; plasma, iv, 3 mg/kg, Plasma concentration at 0.5 h, 3 mg/kg i.v.): 345 ng/mL
concentration at 2 h ([1]; plasma, iv, 3 mg/kg, Plasma concentration at 2.0 h, 3 mg/kg i.v.): 24.9 ng/mL
concentration at 0.5 h ([1]; plasma, po, 10 mg/kg, Plasma concentration at 0.5 h, 10 mg/kg p.o.): 421 ng/mL
concentration at 2 h ([1]; plasma, po, 10 mg/kg, Plasma concentration at 2.0 h, 10 mg/kg p.o.): 188 ng/mL
effect on ERK1/2 phosphorylation mediated by hD2R, compound alone (agonist mode) (hD2R [2]): weak partial agonism
Ki (hD2R [3]): > 10000 nM
inhibition at 10 µM (hD2R [3]; read-out: % inhibition at 10 μmol/L hD2): 19.6 ± 5.7%
Ki (hD5): > 10000 nM
Catalepsy MED i.p. (minimum effective dose) (mice [4]): ≥480.0 mg/kg
Catalepsy peak effect (percent of cataleptic animals) (mice [4]; i.p.): 0.0%
catalepsy under all tested doses (mice [4]; i.p., 23j up to 240 mg/kg, 36a/b/f up to 480 mg/kg): did not elicit catalepsy
Ki (hD3R [5]; Ki hD3, three experiments, means ± SEM): 16.8 ± 1.8 nM
inhibition at 10 µM (hD3R [5]; read-out: % inhibition at 10 μmol/L hD3, 10 μmol/L test compound): 97.9 ± 3.6%
Ki (hα1): 2220 nM
IC50 (hERG channel): 1750 nM
Ki (hSERT): > 10000 nM
Ki (h5-HT1B): 138 nM
effect on the viability of HEK293T (HEK293T cells): less effects
Ki (h5-HT2A): 398 nM
immobility time of FST (ICR mice [6]): 30 mg/kg group showed activities, but lower dose groups did not
Ki (hH1): 2310 nM
effect on spontaneous locomotion (ICR mice [7]): no influences
body weight / weight gain [8]: No influence on body weight
Ki (hNET): > 10000 nM
inhibition of apomorphine-induced climbing (ICR mice [9]): dose-dependently inhibit
serum prolactin level (mice [10]): nonsignificant serum prolactin change
immobility time in the TST, 3 mg/kg group (ICR mice [11]; 3 mg/kg): did not show significant differences
latency by first observed TST immobility (ICR mice [11]; 36b 3, 10, 30 mg/kg): only 30 mg/kg group was found to be prolonged
immobility time in the TST (ICR mice [11]; 36b 3, 10, 30 mg/kg, DLX 15 mg/kg): dose-dependently decreased
effect on the viability of BV2 (BV2 cells): less effects
acute toxicity / tolerance (mice [12]): well tolerant
effect on ERK1/2 phosphorylation mediated by hD3R, compound alone (agonist mode) (hD3R [13]; CHO-hD3R cells, quinpirole at 20 μmol/L): no influence
competitive antagonism of ERK1/2 phosphorylation mediated by D3R (hD3R [13]; in the presence of 20 μmol/L dopamine): dose-dependently inhibit
AUC ([14]; iv, 3 mg/kg): 677 ng·h/mL
Cmax ([14]; iv, 3 mg/kg): 1230 ng/mL
MRT ([14]; iv, 3 mg/kg): 30.6 min
Tmax ([14]; iv, 3 mg/kg): 4.8 min
Vd ([14]; iv, 3 mg/kg): 2.33 L/kg
clearance ([14]; iv, 3 mg/kg): 73.7 mL/min/kg
half-life ([14]; iv, 3 mg/kg, t1/2, ICR mice, 3 mg/kg i.v., single dose): 52.2 min
bioavailability ([14]; oral, 10 mg/kg): 39.7%
AUC ([14]; po, 10 mg/kg): 896 ng·h/mL
Cmax ([14]; po, 10 mg/kg): 505 ng/mL
MRT ([14]; po, 10 mg/kg): 102 min
Tmax ([14]; po, 10 mg/kg): 15 min
Ki (hD4): 8810 nM

Cc1nc2n(c(=O)c1CCN1CCC(c3noc4cc(F)ccc34)CC1)CCCC2 [Risperidone, reference compound]
Catalepsy MED i.p. (minimum effective dose) (mice [4]): 2.4 mg/kg
Catalepsy peak effect (percent of cataleptic animals) (mice [4]; i.p.): 100.0%
ED50 (Catalepsy test in mice): ~1.51 mg/kg
